Experimental data from the supplement of paper PMC7125110.
± gives the standard error. Variants at the floor of the assay are shown more often than the library holds them.

B1: glmS ribozyme (parent)
chain: AUAAAAGCGCCAGAACUACAGAAAUGUAGUUGACGAGGAGGAGGUUUAUCGAAUUUUCGGCGGAUGCCUCCAAA

Tests used:
Details in all cases: with glucosamine-6-phosphate
[1] = variants of: B1; assay: self-cleavage kobs at 40 uM GlcN6P; higher = faster cleavage; RNA array
How it was run: (§1)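 kobs was derived by fitting per-tile medians to one- or two-exponential decays after normalising signals to baseline and to non-cleaving reference variants. Those signals came from barcoded ribozyme variants transcribed in situ by E. coli RNA polymerase on sequenced MiSeq chips, followed through a hybridised Cy3 probe at 37 °C and imaged over ~14 h. Glucosamine-6-phosphate (40 μM to 10 mM) in HEPES/KCl/Mg(OAc)2 buffer was flowed in. Weighted Michaelis–Menten fits across concentrations then gave kcat and KM.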

[2] = variants of: B1; assay: self-cleavage kobs at 640 uM GlcN6P; higher = faster cleavage; RNA array
How it was run: as §1

[3] = variants of: B1; assay: self-cleavage kobs at 160 uM GlcN6P; higher = faster cleavage; RNA array
How it was run: as §1

[4] = variants of: B1; assay: self-cleavage kobs at 2500 uM GlcN6P; higher = faster cleavage; RNA array
How it was run: as §1

[5] = variants of: B1; assay: self-cleavage kobs at 10000 uM GlcN6P; higher = faster cleavage; RNA array
How it was run: as §1

Variant	self-cleavage kobs at 40 uM GlcN6P [1]	self-cleavage kobs at 640 uM GlcN6P [2]	self-cleavage kobs at 160 uM GlcN6P [3]	self-cleavage kobs at 2500 uM GlcN6P [4]	self-cleavage kobs at 10000 uM GlcN6P [5]
A6G G41C	< 1e-05 s⁻¹	< 1e-05 s⁻¹	< 1e-05 s⁻¹	< 1e-05 s⁻¹	< 1e-05 s⁻¹
A6G G41U	< 1e-05 s⁻¹	< 1e-05 s⁻¹	< 1e-05 s⁻¹	–	–
A6G G44U G60U	< 1e-05 s⁻¹	–	–	< 1e-05 s⁻¹	–
A6G G51U U57C	< 1e-05 s⁻¹	–	–	–	< 1e-05 s⁻¹
A6G G62A	< 1e-05 s⁻¹	< 1e-05 s⁻¹	< 1e-05 s⁻¹	< 1e-05 s⁻¹	< 1e-05 s⁻¹
A6G G62U	< 1e-05 s⁻¹	< 1e-05 s⁻¹	< 1e-05 s⁻¹	< 1e-05 s⁻¹	< 1e-05 s⁻¹
A6G G66C	< 1e-05 s⁻¹	< 1e-05 s⁻¹	< 1e-05 s⁻¹	–	< 1e-05 s⁻¹
A6G U30C C70A	< 1e-05 s⁻¹	–	–	–	< 1e-05 s⁻¹
A6G U31C C70U	< 1e-05 s⁻¹	–	–	< 1e-05 s⁻¹	–
A6G U55C	< 1e-05 s⁻¹	–	–	–	–
A6G U56C	< 1e-05 s⁻¹	< 1e-05 s⁻¹	< 1e-05 s⁻¹	–	< 1e-05 s⁻¹
A6G U65A	< 1e-05 s⁻¹	–	–	4.41e-05 ± 1.2e-05 s⁻¹	6.05e-05 ± 9.8e-06 s⁻¹
A6G U65G	< 1e-05 s⁻¹	–	–	–	–
A6U A12C U45A A52C	< 1e-05 s⁻¹	–	–	–	–
A6U A12G G43U	< 1e-05 s⁻¹	–	–	–	–
A6U A15G U49C G51A	< 1e-05 s⁻¹	–	–	< 1e-05 s⁻¹	–
A6U A33C	< 1e-05 s⁻¹	< 1e-05 s⁻¹	< 1e-05 s⁻¹	< 1e-05 s⁻¹	–
A6U A39C G43A C67U C68U	< 1e-05 s⁻¹	–	–	–	–
A6U A48C	< 1e-05 s⁻¹	< 1e-05 s⁻¹	< 1e-05 s⁻¹	< 1e-05 s⁻¹	< 1e-05 s⁻¹
A6U A48G G51C G59C	< 1e-05 s⁻¹	–	–	–	–
A6U A52U A64C C71G	< 1e-05 s⁻¹	–	–	–	< 1e-05 s⁻¹
A6U A52U C61A	< 1e-05 s⁻¹	–	–	–	–

Variant	self-cleavage kobs at 40 uM GlcN6P [1]	self-cleavage kobs at 640 uM GlcN6P [2]	self-cleavage kobs at 160 uM GlcN6P [3]	self-cleavage kobs at 2500 uM GlcN6P [4]	self-cleavage kobs at 10000 uM GlcN6P [5]
A6U C8G A42U C61G	< 1e-05 s⁻¹	< 1e-05 s⁻¹	< 1e-05 s⁻¹	< 1e-05 s⁻¹	< 1e-05 s⁻¹
A6U C8G C16U U55A	< 1e-05 s⁻¹	–	–	–	–
A6U C10G A42G C50G C67A C70A	0.000143 ± 4.1e-05 s⁻¹	–	–	–	9.95e-05 ± 2.4e-05 s⁻¹
A6U C10G G29A G38C G44U C68U	< 1e-05 s⁻¹	–	–	–	< 1e-05 s⁻¹
A6U C11U G32U	< 1e-05 s⁻¹	–	–	–	< 1e-05 s⁻¹
A6U C16G U65G	< 1e-05 s⁻¹	–	< 1e-05 s⁻¹	< 1e-05 s⁻¹	–
A6U C16U U47A G63U	< 1e-05 s⁻¹	–	–	–	< 1e-05 s⁻¹
A6U C34A	< 1e-05 s⁻¹	< 1e-05 s⁻¹	< 1e-05 s⁻¹	< 1e-05 s⁻¹	< 1e-05 s⁻¹
A6U G7A A33U	< 1e-05 s⁻¹	–	–	–	< 1e-05 s⁻¹
A6U G7C U56C	< 1e-05 s⁻¹	–	–	–	–
A6U G7U G44A U45G A53U G60A	< 1e-05 s⁻¹	< 1e-05 s⁻¹	–	< 1e-05 s⁻¹	–
A6U G7U U46G U56G U65A	< 1e-05 s⁻¹	–	–	–	–
A6U G9A	< 1e-05 s⁻¹	< 1e-05 s⁻¹	< 1e-05 s⁻¹	< 1e-05 s⁻¹	–
A6U G9U G59C	< 1e-05 s⁻¹	–	–	–	–
A6U G29A U30C	< 1e-05 s⁻¹	–	–	–	< 1e-05 s⁻¹
A6U G32A	< 1e-05 s⁻¹	–	< 1e-05 s⁻¹	–	–
A6U G32U G40U	< 1e-05 s⁻¹	< 1e-05 s⁻¹	–	< 1e-05 s⁻¹	–
A6U G35C G51C U65G	< 1e-05 s⁻¹	–	–	–	–
A6U G37A	< 1e-05 s⁻¹	–	< 1e-05 s⁻¹	–	–
A6U G37C C70G	< 1e-05 s⁻¹	–	–	–	–
A6U G38A	< 1e-05 s⁻¹	–	–	–	–
A6U G38U C71A	< 1e-05 s⁻¹	–	–	–	–

Variant	self-cleavage kobs at 40 uM GlcN6P [1]	self-cleavage kobs at 640 uM GlcN6P [2]	self-cleavage kobs at 160 uM GlcN6P [3]	self-cleavage kobs at 2500 uM GlcN6P [4]	self-cleavage kobs at 10000 uM GlcN6P [5]
A6U G40A	< 1e-05 s⁻¹	–	< 1e-05 s⁻¹	–	–
A6U G40C	< 1e-05 s⁻¹	–	–	–	–
A6U G41U U47C	< 1e-05 s⁻¹	–	–	–	< 1e-05 s⁻¹
A6U G43U	< 1e-05 s⁻¹	< 1e-05 s⁻¹	< 1e-05 s⁻¹	–	–
A6U G44A C70U	< 1e-05 s⁻¹	–	–	–	–
A6U G44U	< 1e-05 s⁻¹	< 1e-05 s⁻¹	< 1e-05 s⁻¹	< 1e-05 s⁻¹	< 1e-05 s⁻¹
A6U G51U	< 1e-05 s⁻¹	–	< 1e-05 s⁻¹	–	–
A6U G59C G60U	< 1e-05 s⁻¹	< 1e-05 s⁻¹	–	–	< 1e-05 s⁻¹
A6U G66C	< 1e-05 s⁻¹	< 1e-05 s⁻¹	–	–	–
A6U U30C U56C	< 1e-05 s⁻¹	–	–	–	–
A6U U30G	< 1e-05 s⁻¹	–	–	–	–
A6U U30G U65C	< 1e-05 s⁻¹	< 1e-05 s⁻¹	–	–	< 1e-05 s⁻¹
A6U U57A G59A G60A	< 1e-05 s⁻¹	–	–	–	–
A6U U57C G59A	< 1e-05 s⁻¹	–	–	–	–
G7A A12C G13U C58U C71U	< 1e-05 s⁻¹	–	–	–	–
G7A A14U	< 1e-05 s⁻¹	< 1e-05 s⁻¹	< 1e-05 s⁻¹	–	–
G7A A15U G29A G35U	< 1e-05 s⁻¹	–	–	< 1e-05 s⁻¹	< 1e-05 s⁻¹
G7A A36C G63A	< 1e-05 s⁻¹	–	–	–	–
G7A A39C A52U G60A C67U	< 1e-05 s⁻¹	–	–	–	–
G7A A42G	< 1e-05 s⁻¹	–	< 1e-05 s⁻¹	–	–
G7A A48C	< 1e-05 s⁻¹	–	–	–	–
G7A A48U U49G	< 1e-05 s⁻¹	–	–	–	< 1e-05 s⁻¹

Variant	self-cleavage kobs at 40 uM GlcN6P [1]	self-cleavage kobs at 640 uM GlcN6P [2]	self-cleavage kobs at 160 uM GlcN6P [3]	self-cleavage kobs at 2500 uM GlcN6P [4]	self-cleavage kobs at 10000 uM GlcN6P [5]
G7A A52G	< 1e-05 s⁻¹	< 1e-05 s⁻¹	–	–	< 1e-05 s⁻¹
G7A C10A	< 1e-05 s⁻¹	–	< 1e-05 s⁻¹	< 1e-05 s⁻¹	< 1e-05 s⁻¹
G7A C10G A64U U65C	< 1e-05 s⁻¹	–	–	< 1e-05 s⁻¹	–
G7A C11A U47G	< 1e-05 s⁻¹	–	–	–	< 1e-05 s⁻¹
G7A C34G	< 1e-05 s⁻¹	–	–	< 1e-05 s⁻¹	< 1e-05 s⁻¹
G7A C61A	< 1e-05 s⁻¹	–	–	–	–
G7A G9A	< 1e-05 s⁻¹	< 1e-05 s⁻¹	< 1e-05 s⁻¹	< 1e-05 s⁻¹	–
G7A G9A A48G U49A A52C	< 1e-05 s⁻¹	< 1e-05 s⁻¹	–	< 1e-05 s⁻¹	–
G7A G9U A48G	< 1e-05 s⁻¹	–	–	–	–
G7A G13U U69G C71A	0.00031 ± 7.3e-05 s⁻¹	–	–	–	0.000516 ± 0.00016 s⁻¹
G7A G37C A42U	< 1e-05 s⁻¹	< 1e-05 s⁻¹	–	< 1e-05 s⁻¹	< 1e-05 s⁻¹
G7A G38C G40U U47A	< 1e-05 s⁻¹	–	–	–	–
G7A G38U C58A	< 1e-05 s⁻¹	–	–	–	< 1e-05 s⁻¹
G7A G41C C58A	< 1e-05 s⁻¹	–	–	–	< 1e-05 s⁻¹
G7A G44U	< 1e-05 s⁻¹	< 1e-05 s⁻¹	< 1e-05 s⁻¹	< 1e-05 s⁻¹	< 1e-05 s⁻¹
G7A G44U U56C	< 1e-05 s⁻¹	–	< 1e-05 s⁻¹	–	< 1e-05 s⁻¹
G7A G60A	< 1e-05 s⁻¹	< 1e-05 s⁻¹	< 1e-05 s⁻¹	–	–
G7A G60C	< 1e-05 s⁻¹	–	–	–	< 1e-05 s⁻¹
G7A G62A	< 1e-05 s⁻¹	< 1e-05 s⁻¹	–	< 1e-05 s⁻¹	< 1e-05 s⁻¹
G7A G63U	< 1e-05 s⁻¹	–	–	–	< 1e-05 s⁻¹
G7A U30A G40C	< 1e-05 s⁻¹	–	–	–	–
G7A U30G G41C C58G G66A	< 1e-05 s⁻¹	–	–	–	–

Variant	self-cleavage kobs at 40 uM GlcN6P [1]	self-cleavage kobs at 640 uM GlcN6P [2]	self-cleavage kobs at 160 uM GlcN6P [3]	self-cleavage kobs at 2500 uM GlcN6P [4]	self-cleavage kobs at 10000 uM GlcN6P [5]
G7A U31G	< 1e-05 s⁻¹	–	< 1e-05 s⁻¹	–	–
G7A U45A A53G U56A	< 1e-05 s⁻¹	–	–	–	–
G7A U49G U55G	< 1e-05 s⁻¹	–	–	< 1e-05 s⁻¹	–
G7C A12C G26U U30A A36U A64U U65C	< 1e-05 s⁻¹	–	–	–	< 1e-05 s⁻¹
G7C A14C	< 1e-05 s⁻¹	< 1e-05 s⁻¹	–	< 1e-05 s⁻¹	< 1e-05 s⁻¹
G7C A15G	< 1e-05 s⁻¹	–	–	–	–
G7C A15U G35U G60A	< 1e-05 s⁻¹	< 1e-05 s⁻¹	–	< 1e-05 s⁻¹	–
G7C A36C	< 1e-05 s⁻¹	< 1e-05 s⁻¹	< 1e-05 s⁻¹	< 1e-05 s⁻¹	< 1e-05 s⁻¹
G7C A36G	< 1e-05 s⁻¹	< 1e-05 s⁻¹	< 1e-05 s⁻¹	–	< 1e-05 s⁻¹
G7C A39U C61U	< 1e-05 s⁻¹	–	–	–	< 1e-05 s⁻¹
G7C A42C G44A	< 1e-05 s⁻¹	< 1e-05 s⁻¹	–	< 1e-05 s⁻¹	< 1e-05 s⁻¹
G7C A42G U56G	< 1e-05 s⁻¹	–	–	–	< 1e-05 s⁻¹
G7C C8G G29U G63U C70U	< 1e-05 s⁻¹	–	–	–	< 1e-05 s⁻¹
G7C C8U C34A	< 1e-05 s⁻¹	–	–	–	–
G7C C10U A15U U49C	< 1e-05 s⁻¹	–	–	–	< 1e-05 s⁻¹
G7C C11U C61A C70G	< 1e-05 s⁻¹	–	–	< 1e-05 s⁻¹	–
G7C C50A G60C	< 1e-05 s⁻¹	–	–	< 1e-05 s⁻¹	–
G7C C61G	< 1e-05 s⁻¹	–	< 1e-05 s⁻¹	< 1e-05 s⁻¹	–
